Some of the results follow. Antibody binding of pooled human sera (four to six donors per pool; dilution not stated) to peptides of the Trypanosoma cruzi antigen TSSA on microarrays. Quantile-normalised fluorescence in arbitrary units, mean of duplicate arrays; higher = more binding. No active / inactive call. The uninfected pools are read here as the healthy donors of the same country. The strongest signals lie near the top of the scale (about 60,000).

For this test, the system named is pooled sera of chronic Chagas disease patients, Argentina. Put plainly: antibody binding signal (normalised fluorescence) (arbitrary fluorescence units); higher = stronger serum antibody binding to peptide. How it is done: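 Microarray of 15-residue peptides over residues 30-55 of Trypanosoma cruzi TSSAII, each with 1 to 10 substitutions at naturally variable positions, probed with one serum pool per country.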
Regarding DNKAAAGETPSPPGA, the antibody binding signal is 258.

With GTEKKTAAGGTPSQP, the antibody binding signal came to 747.

The sequence PSGKENKPAAGGAPS registered an antibody binding signal of 9400.

GKEKKAAAGGTPSPP gave an antibody binding signal of 663.

Sequence TPPSGTDKKAAAGEA registered an antibody binding signal of 14300.

As to GKEKKAATGEAPSPS, the antibody binding signal is 13900.

In the case of SGKENKPATGGAPSP, the antibody binding signal came out at 5400.

Turning to PPSGKEKKAAAGGTP, the antibody binding signal worked out at 1830.

In the case of KAAAGGAPSQSGASS, the antibody binding signal worked out at 221.

Consider KKAATGEAPSQSGAS, for which the antibody binding signal turned out to be 4390.

STPPSGKEKKAAAGG came in with an antibody binding signal of 13500.

As to TDKKAATGGAPSPSG, the antibody binding signal came to 1520.

In turn, TPPSGKDNKAAAGET yielded an antibody binding signal of 624.

Consider SGKDKKPAAGEAPSQ, for which the antibody binding signal was found to be 1460.

ISTPPSGTENKPAAG: the antibody binding signal is 53900.

Turning to GKENKAATGGTPSPS, the antibody binding signal is 2390.

GTENKPATGGAPSQP yielded an antibody binding signal of 45700.

With TDNKTAAGGAPSQSG, the antibody binding signal was found to be 294.

On to TEKKAAAGEAPSPPG, for which the antibody binding signal came out at 1420.

For PSGTEKKPATGGAPS, the antibody binding signal was found to be 22700.

Sequence GTENKTATGGAPSPP registered an antibody binding signal of 25800.

Regarding TDNKTAAGEAPSQSG, the antibody binding signal stood at 341.

Regarding GTEKKPAAGGTPSQS, the antibody binding signal came out at 1120.

SGTDKKPAAGETPSQ showed an antibody binding signal of 395.

Turning to GTDNKAAAGGAPSQS, the antibody binding signal was 333.

Turning to DKKAAAGGTPSQSGA, the antibody binding signal was determined as 667.

Sequence GKDKKAAAGETPSQP registered an antibody binding signal of 659.

As to SGKEKKTAAGGAPSQ, the antibody binding signal was found to be 2630.

On to PPSGKDKKTATGGTP, for which the antibody binding signal worked out at 909.

In turn, KDKKPAAGGAPSPSG showed an antibody binding signal of 204.

The sequence KEKKAATGGTPSPPG gave an antibody binding signal of 313.

In turn, TDKKPATGGTPSPPG yielded an antibody binding signal of 808.

The sequence KKAATGGTPSQSGAS had an antibody binding signal of 362.

TDNKAAAGEAPSQSG: the antibody binding signal worked out at 402.

With GTEKKTATGETPSPP, the antibody binding signal amounted to 1340.

Turning to PSGTDKKPAAGGAPS, the antibody binding signal turned out to be 4340.

As to EKKPATGETPSQSGA, the antibody binding signal was determined as 36200.

In the case of GKEKKTAAGGTPSPP, the antibody binding signal worked out at 1370.

In turn, GTDNKAATGGAPSQP registered an antibody binding signal of 672.

Sequence GKEKKTATGEAPSPS yielded an antibody binding signal of 8530.

These data come from the supplement of paper PMC10441789.
